The results in this text go back to publication PMC6054203.

For assay [1], the target named is T1, CIPK23, two-hybrid fusion (Arabidopsis) (UniProt Q93VD3).
T1 sequence: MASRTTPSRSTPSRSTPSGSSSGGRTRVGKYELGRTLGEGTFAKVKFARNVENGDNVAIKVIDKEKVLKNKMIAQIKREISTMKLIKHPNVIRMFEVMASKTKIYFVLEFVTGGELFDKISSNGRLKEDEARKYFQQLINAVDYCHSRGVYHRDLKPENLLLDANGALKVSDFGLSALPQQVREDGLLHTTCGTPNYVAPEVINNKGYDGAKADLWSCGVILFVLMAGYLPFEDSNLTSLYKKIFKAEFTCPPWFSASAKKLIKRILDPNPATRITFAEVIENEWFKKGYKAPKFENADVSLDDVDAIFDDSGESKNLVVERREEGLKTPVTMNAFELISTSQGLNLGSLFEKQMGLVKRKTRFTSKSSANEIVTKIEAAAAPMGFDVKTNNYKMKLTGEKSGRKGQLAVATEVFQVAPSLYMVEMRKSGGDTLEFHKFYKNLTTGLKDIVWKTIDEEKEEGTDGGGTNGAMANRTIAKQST
As to the kind of experiment: two-hybrid; yeast strain AH109 co-transformed with AD (pGAD.GH) and BD (pGBT9.BS) fusions; growth on SC-LWH and on SC-LWH with 0.5 and 3.0 mM 3-AT.

The target in assay [2] is T2, CIPK19, two-hybrid fusion (Arabidopsis) (UniProt Q9FJ55).
T2 sequence: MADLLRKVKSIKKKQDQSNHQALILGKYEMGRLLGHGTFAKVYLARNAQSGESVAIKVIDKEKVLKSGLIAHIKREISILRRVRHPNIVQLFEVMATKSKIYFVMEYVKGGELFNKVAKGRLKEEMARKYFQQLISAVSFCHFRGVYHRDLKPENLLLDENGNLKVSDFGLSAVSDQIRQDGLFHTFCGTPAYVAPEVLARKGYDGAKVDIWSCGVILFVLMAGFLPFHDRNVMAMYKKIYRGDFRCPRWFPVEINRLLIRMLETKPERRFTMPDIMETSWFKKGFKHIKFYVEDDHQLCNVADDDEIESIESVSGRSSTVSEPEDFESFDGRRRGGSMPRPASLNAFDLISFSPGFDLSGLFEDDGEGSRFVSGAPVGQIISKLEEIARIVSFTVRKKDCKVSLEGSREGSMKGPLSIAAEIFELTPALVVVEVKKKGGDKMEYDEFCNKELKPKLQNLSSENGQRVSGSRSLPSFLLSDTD
The assay is described as above.

Assay [3] addresses T3, CBL-interacting protein kinase 9 (CIPK9), two-hybrid fusion (Arabidopsis thaliana) (UniProt Q9MAM1).
T3 sequence: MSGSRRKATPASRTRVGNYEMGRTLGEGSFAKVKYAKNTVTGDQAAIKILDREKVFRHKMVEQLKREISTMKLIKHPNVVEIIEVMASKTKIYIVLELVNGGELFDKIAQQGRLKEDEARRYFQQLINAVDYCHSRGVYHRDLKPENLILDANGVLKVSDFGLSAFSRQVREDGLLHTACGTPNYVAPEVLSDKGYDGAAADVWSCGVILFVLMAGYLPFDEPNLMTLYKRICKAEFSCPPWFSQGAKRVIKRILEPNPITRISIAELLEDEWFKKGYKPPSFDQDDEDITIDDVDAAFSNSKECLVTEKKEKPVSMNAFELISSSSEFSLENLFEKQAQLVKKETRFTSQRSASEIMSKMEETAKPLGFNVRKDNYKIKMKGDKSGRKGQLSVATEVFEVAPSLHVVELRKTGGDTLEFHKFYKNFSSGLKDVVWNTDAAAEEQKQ
The description is as above.

Assay [4] addresses T4, CIPK15, two-hybrid fusion (Arabidopsis) (UniProt P92937).
T4 sequence: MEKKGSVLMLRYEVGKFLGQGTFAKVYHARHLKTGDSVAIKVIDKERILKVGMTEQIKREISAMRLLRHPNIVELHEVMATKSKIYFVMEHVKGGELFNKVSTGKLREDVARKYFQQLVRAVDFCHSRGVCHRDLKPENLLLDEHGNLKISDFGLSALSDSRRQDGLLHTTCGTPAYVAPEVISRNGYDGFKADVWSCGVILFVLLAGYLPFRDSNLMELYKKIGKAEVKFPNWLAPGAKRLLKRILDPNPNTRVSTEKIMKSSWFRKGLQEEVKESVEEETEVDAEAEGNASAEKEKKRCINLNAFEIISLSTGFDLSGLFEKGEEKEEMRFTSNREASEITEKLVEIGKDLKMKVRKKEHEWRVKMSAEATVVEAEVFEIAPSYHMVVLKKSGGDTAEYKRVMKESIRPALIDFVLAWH
The description is as above.

Assay [5] deals with T5, CIPK10, two-hybrid fusion (Arabidopsis) (UniProt Q9C562).
T5 sequence: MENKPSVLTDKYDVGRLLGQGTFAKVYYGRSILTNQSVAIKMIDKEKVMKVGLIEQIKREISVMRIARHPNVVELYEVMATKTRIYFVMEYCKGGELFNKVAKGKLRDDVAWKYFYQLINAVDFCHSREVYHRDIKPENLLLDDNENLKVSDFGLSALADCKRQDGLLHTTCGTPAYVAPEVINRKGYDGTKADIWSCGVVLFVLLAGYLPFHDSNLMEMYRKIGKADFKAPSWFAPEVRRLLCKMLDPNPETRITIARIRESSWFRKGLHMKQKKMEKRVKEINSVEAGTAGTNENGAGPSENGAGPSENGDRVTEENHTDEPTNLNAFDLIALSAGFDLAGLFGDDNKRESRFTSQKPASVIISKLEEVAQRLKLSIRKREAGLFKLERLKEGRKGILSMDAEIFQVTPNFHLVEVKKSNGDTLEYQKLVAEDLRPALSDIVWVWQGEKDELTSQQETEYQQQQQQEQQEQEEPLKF
Described as above.

Assay [6] concerns the target T3, CBL-interacting protein kinase 9 (CIPK9), two-hybrid fusion (Arabidopsis thaliana). Briefly: two-hybrid; yeast two-hybrid library screening for interactors of CIPK9.

These are yes or no findings as the source states them, for the method shown. Some binding calls cover weakened binding; strength is not graded here. Tags and fused reporters may be left off the sequences shown.

B1: AP2C1 (protein phosphatase 2C), two-hybrid fusion (enzyme, UniProt O80871 1-396)
chain: MSCSVAVCNSPVFSPSSSLFCNKSSILSSPQESLSLTLSHRKPQTSSPSSPSTTVSSPKSPFRLRFQKPPSGFAPGPLSFGSESVSASSPPGGVLKRKRPTRLDIPIGVAGFVAPISSSAAVAATPREECREVEREGDGYSVYCKRGRREAMEDRFSAITNLHGDRKQAIFGVYDGHGGVKAAEFAAKNLDKNIVEEVVGKRDESEIAEAVKHGYLATDASFLKEEDVKGGSCCVTALVNEGNLVVSNAGDCRAVMSVGGVAKALSSDHRPSRDDERKRIETTGGYVDTFHGVWRIQGSLAVSRGIGDAQLKKWVIAEPETKISRIEHDHEFLILASDGLWDKVSNQEAVDIARPLCLGTEKPLLLAACKKLVDLSASRGSSDDISVMLIPLRQFI
Take B1: the binding entry in assay [1] is on record as “no binding”; in assay [2], “no binding”; in assay [3], “binds”; in assay [4], “no binding”; in assay [5], “no binding”; in assay [6], “binds”.
